# The antibiotic and cytotoxicity screens of Wong et al. (2023)
# This is one part of the list.
# What was measured:
# HSkMC = human skeletal muscle cells; assay: cytotoxicity call (relative viability < 0.9); conditions: 10 µM
# HepG2 = assay: cytotoxicity call (relative viability < 0.9); conditions: 10 µM
# S. aureus RN4220 = assay: growth inhibition call (relative growth <= 0.2); conditions: 50 µM
Structure (SMILES),cytotoxicity call (HSkMC),cytotoxicity call (HepG2),growth inhibition call (S. aureus RN4220)
COc1ccc(-c2cc(=O)c3c(O)cc(O[C@@H]4O[C@@H](CO[C@@H]5O[C@H](C)[C@@H](O)[C@H](O)[C@H]5O)[C@H](O)[C@@H](O)[C@H]4O)cc3o2)cc1O,inactive,inactive,inactive
Nc1ncnc2c1ncn2C1OC(COP(=O)(O)OP(=O)([O-])OP(=O)([O-])O)C(O)C1O.[Na+].[Na+] (stereo not given),inactive,inactive,inactive
Cc1ccc(S(=O)(=O)Nc2ccc3c(c2)C(=O)N([C@@H](C)CO)C[C@H](C)[C@@H](CN(C)C(=O)Nc2ccccc2)OCCCC[C@H](C)O3)cc1,inactive,active,inactive
CO[C@@H]1CN(C)C(=O)c2cc(NS(=O)(=O)c3ccccc3C)ccc2OC[C@@H](C)N(S(C)(=O)=O)C[C@H]1C,inactive,inactive,inactive
CNC(=O)c1ccc2c(c1)nnn2C,inactive,inactive,inactive
COc1ccc(C#Cc2ccc3c(c2)O[C@H](CN(C)C(=O)CN2CCOCC2)[C@H](C)CN([C@H](C)CO)S3(=O)=O)cc1,inactive,inactive,inactive
C[C@@H]1CCCCO[C@@H](CN(C)C(=O)c2ccccc2)[C@H](C)CN([C@H](C)CO)C(=O)c2cc(NC(=O)c3ccccc3)ccc2O1,inactive,inactive,inactive
Cc1noc(C)c1NC(=O)N(C)C[C@H]1Oc2ccc(NS(=O)(=O)c3ccccc3)cc2CC(=O)N([C@@H](C)CO)C[C@@H]1C,inactive,inactive,inactive
CO[C@@H]1CN(C)C(=O)c2cc(NC(=O)NC(C)C)ccc2OC[C@H](C)N(Cc2ccc(-c3ccccn3)cc2)C[C@H]1C,inactive,inactive,inactive
CC(C)NC(=O)N(C)C[C@H]1Oc2c(NS(=O)(=O)c3ccc(Cl)cc3)cccc2C(=O)N([C@H](C)CO)C[C@@H]1C,inactive,inactive,inactive
N[C@@H](c1ccncc1)c1ccc(OCc2ccccc2)cc1,inactive,inactive,inactive
C[C@@H]1CN([C@@H](C)CO)C(=O)c2cccc(NC(=O)Nc3ccc(C(F)(F)F)cc3)c2O[C@@H]1CN(C)C(=O)Nc1ccc2c(c1)OCO2,inactive,inactive,inactive
Nc1ncnc2c1ncn2[C@@H]1O[C@H](CSCC[C@H](N)C(=O)O)[C@@H](O)[C@H]1O,inactive,inactive,inactive
C[C@@H]1CN([C@@H](C)CO)C(=O)c2cc(NC(=O)Nc3ccc4c(c3)OCO4)ccc2O[C@@H](C)CCCCO[C@H]1CN(C)C(=O)C1CCCCC1,inactive,inactive,inactive
CO[C@@H]1CN(C)C(=O)c2ccc(NC(C)=O)cc2OC[C@@H](C)N(S(=O)(=O)c2cn(C)cn2)C[C@H]1C,inactive,inactive,inactive
Cc1noc(C)c1S(=O)(=O)Nc1ccc2c(c1)C(=O)N([C@H](C)CO)C[C@@H](C)[C@@H](CN(C)Cc1ccc(C(F)(F)F)cc1)OCCCC[C@@H](C)O2,inactive,inactive,inactive
CC1CC2C3CCC4=CC(=O)C=CC4(C)C3(F)C(O)CC2(C)C1(O)C(=O)CO (stereo not given),inactive,inactive,inactive
NCC[C@H]1CC[C@H](NC(=O)NC2CCCCC2)[C@@H](CO)O1,inactive,inactive,inactive
COc1ccc(CN(C)C[C@H]2OCCCC[C@@H](C)Oc3ccc(NC(=O)Nc4ccc(OC)cc4)cc3C(=O)N([C@@H](C)CO)C[C@H]2C)cc1,inactive,active,inactive
C[C@@H]1CN([C@@H](C)CO)C(=O)c2cc(NC(=O)Nc3ccc4c(c3)OCO4)ccc2O[C@H]1CN(C)S(C)(=O)=O,inactive,inactive,inactive
O=C1N[C@@H](CC(=O)N2CCN(CCc3ccncc3)CC2)C(=O)Nc2ccccc21,inactive,inactive,inactive
COc1ccc(NC(=O)N(C)C[C@H]2OCCCC[C@@H](C)Oc3ccc(NC(=O)Cc4ccccc4)cc3C(=O)N([C@H](C)CO)C[C@@H]2C)cc1,inactive,inactive,inactive
C[C@@H]1CN([C@H](C)CO)C(=O)c2cc(NC(=O)Nc3ccc(F)cc3)ccc2O[C@@H](C)CCCCO[C@@H]1CN(C)CC1CCCCC1,active,active,inactive
COc1ccc([Si](C)(C)[C@@H]2[C@@H](CCO)O[C@]3(C(=O)N(Cc4ccccc4)c4ccc(N5C(=O)c6ccccc6Oc6ccccc65)cc43)[C@H]2C)cc1,inactive,inactive,inactive
C[C@H](CO)N1C[C@H](C)[C@H](CN(C)C(=O)CN(C)C)Oc2ncc(C#CC(C)(C)O)cc2C1=O,inactive,inactive,inactive
